The whole screen tested about 120,000 compounds, of which about 5,300 (4.4%) were called active. The inconclusive results got no clear call from the source; some entries with a clear call stand among them for comparison. The call rests on the fitted dose curve; in most records, active means well fitted inhibition curve with a large enough effect; inconclusive means small, poorly fitted or top-dose-only effect; inactive means no such curve, though single readings can be large or run the other way. A potency beside an inconclusive call is a rough fit, not a confirmed value.
experiment: qHTS Primary assay for Inhibitors of Plasmodium falciparum Dd2 growth in vitro; further: nearly all actives have a fitted effect of over 65% in size; details: P. falciparum Dd2 growth, SYBR Green, 72 h; series mostly up to 28.9 µM
Procedure, shortened: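 Infected erythrocytes (Dd2, 0.3% parasitemia, 2.5% hematocrit final) are added to compound in RPMI-1640/Albumax II medium, grown 72 h at 37C in low oxygen, then lysed with saponin/Triton-X containing SYBR Green and read by fluorescence.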
Potency means the concentration at half of the fitted maximal effect; tags describe the fitted curve by direction and shape.

Row | SMILES | Potency
1 | COc1ccc(-c2ccnc3nc(C4CC4)nn23)cc1 | inactive
2 | CC[C@@]1(O)CCN(C(=O)c2[nH]nc(-c3ccc(Cl)cc3)c2C)C[C@H]1O | inactive
3 | CN(CCc1ccccn1)C[C@H]1CN2CC[C@H]1C[C@@H]2CNS(=O)(=O)c1ccc(Cl)cc1 | inconclusive: 1.58 µM [inhibitor, partial curve, poor fit]
4 | O=C1Nc2cnccc2C2(CCN([S+](=O)([O-])c3cccc(C(F)(F)F)c3)C2)O1 (configuration not stated) | inactive
5 | COc1ccc(CCC(=O)N2C[C@@H](Oc3ccccc3)C[C@H]2C(=O)NC2CC2)cc1 | inactive
6 | Cn1nccc1C(=O)N1[C@@H]2CC[C@H]1CC(NC(=O)c1ccc(F)cc1)C2 (some centres not stated) | inactive
7 | CN1CCN(S(=O)(=O)c2cc(C(=O)O)cc(-c3ccncc3)c2)CC1 | inactive
8 | Cc1ccc(C(=O)N2CCCn3cc(-c4ccccc4)nc32)cn1 | inconclusive: 10 µM [inhibitor, single point]
9 | CCS(=O)(=O)N1CCC(c2ncc(C)n2C(C)C)C1 (configuration not stated) | inconclusive: 6.31 µM [inhibitor, partial curve]
10 | CCn1cc(S(=O)(=O)N2CC(N(Cc3cccnc3)CC(C)C)C2)cn1 | inconclusive: 20 µM [inhibitor, single point]
11 | CC1=NOC2(CCN(Cc3ccc(C(F)(F)F)cc3)CC2)C1 | inconclusive: 12.6 µM [inhibitor, single point]
12 | C[S+](=O)([O-])N1Cc2ccccc2CC2(CCCN(Cc3cccnc3)C2)C1 (configuration not stated) | inconclusive: 8.91 µM [inhibitor, single point]
13 | COc1ccc(OC)c(NC(=O)CSC2=Nc3ccccc3C3=NC(CC(=O)NCCc4ccccc4)C(=O)N23)c1 (configuration not stated) | inconclusive: 12.6 µM [inhibitor, single point]
14 | CCNC(=O)N1CCCCC1c1noc(COCC2CC2)n1 (configuration not stated) | inactive
15 | CCn1nc(C)c2c(-c3ccccc3)cc(=O)n(C(C)C(=O)NCCc3ccc(Cl)cc3)c21 (configuration not stated) | inconclusive: 17.8 µM [inhibitor, single point]
16 | COc1cccc(C(=O)N2CCC(n3cc(-c4nc(C)no4)nn3)CC2)c1 | inactive
17 | FC(F)(F)CN1C2CCC1CN(c1nnnn1-c1ccccc1)C2 | inactive
18 | COCC(=O)N[C@H]1C[C@@H](c2nc(-c3ccc4c(c3)OCO4)no2)N(C)C1 | inactive
19 | O=C(c1ccno1)N1C[C@@H]2OCC(=O)N(CC3CC3)[C@@H]2C1 | inactive
20 | Cn1ncc2c(C(=O)NC3CC3)cc(-c3cccc(C(F)(F)F)c3)nc21 | inactive
21 | CC1(COCC2CC2)COc2ccc(C(=O)Nc3cccnc3)cc2N1 (configuration not stated) | inactive
22 | Oc1ccc(-c2nc(C3CC3)nc3c2CN(Cc2ccccc2C(F)(F)F)CC3)cc1 | inconclusive: 2.82 µM [inhibitor, partial curve, poor fit]
23 | CCn1nc(CC(C)C)cc1C(=O)NCCS(=O)(=O)c1ccc(F)cc1 | inconclusive: 10 µM [inhibitor, partial curve, poor fit]

Row | SMILES | Potency
24 | CCCC(=O)N1CCC2(CC1)NCCc1c2[nH]c2ccccc12 | inconclusive: 10 µM [inhibitor, partial curve, poor fit]
25 | CN(C(=O)c1ccnc(-c2nnc3ccc(N4CCOCC4)nn23)c1)c1ccccc1 | inactive
26 | CCc1cccc(NC(=O)Cn2c(-c3ccc(F)cc3)nc(C)c(CCO)c2=O)c1 | inconclusive: 3.55 µM [inhibitor, partial curve, poor fit]
27 | CCc1ccc(NC(=O)Cn2c(=O)n(-c3ccccc3C)c(=O)c3c2c2cc(OC)ccc2n3C)cc1 | inconclusive: 12.6 µM [inhibitor, single point]
28 | CSc1cccc(NC(=O)NC[C@H]2C[C@@H]3CCN2C[C@@H]3CN(C)Cc2ccccc2)c1 | inconclusive: 0.708 µM [inhibitor, partial curve, poor fit]
29 | COc1ccc(-c2ccc(Cn3ccnc3)cn2)c2ccc(C)nc12 | inconclusive: 5.01 µM [inhibitor, partial curve]
30 | CCOC(=O)c1c(N)n(-c2ccc(CC)cc2)c2nc3ccccc3nc12 | inconclusive: 1.26 µM [inhibitor, single point]
31 | COc1cccc(Nc2nc(-c3c(C)noc3C)cc3cc(CN(C)C)oc23)c1 | inconclusive: 4.47 µM [inhibitor, partial curve, poor fit]
32 | O=C(C1CCCC1)N1CC2(CCCN2C2COC2)Cc2ccccc21 (configuration not stated) | active: 8.91 µM
33 | CN1CCN(c2nc3c(S(=O)(=O)c4ccc(Cl)cc4)nnn3c3ccsc23)CC1 | active: 10 µM
34 | COCCN1C(=O)c2ccccc2C(C(=O)Nc2nccs2)C12CCCCC2 (configuration not stated) | inconclusive: 20 µM [inhibitor, single point]
35 | O=C(CN1CCCCCC1)NCC1Cn2cccc2C(=O)N1Cc1ccccc1 (configuration not stated) | active: 3.98 µM
36 | COc1ccc(NC(=O)[C@@H]2C[C@@H](c3ccc(F)cc3)N([S+](=O)([O-])c3ccccc3)C2)c(C)c1 | inconclusive: 11.2 µM [inhibitor, single point]
37 | O=C(Nc1ccc(Br)cc1)c1cc(S(=O)(=O)NC2CCCC2)ccc1F | inconclusive: 17.8 µM [inhibitor, single point]
38 | Cc1ccc2c(C)c(C(=O)N(Cc3ccc(N(C)C)cc3)Cc3ccco3)oc2c1C | inconclusive: 20 µM [inhibitor, single point]
39 | CC(C)Oc1ccc(C(=O)NCC(c2ccc(N(C)C)cc2)N2CCc3ccccc32)cc1 (configuration not stated) | inconclusive: 12.6 µM [inhibitor, single point]
40 | CCOc1ccccc1C1NC(=O)N(CC(=O)Nc2ccc(F)cc2)C2=C1C(=O)OC2 (configuration not stated) | inconclusive: 3.98 µM [inhibitor, partial curve, poor fit]
41 | COCCN1CCNc2cc(-c3cc(Cl)ccc3OC)ncc2C1 | inconclusive: 17.8 µM [inhibitor, single point]
42 | CC(=O)N1CCC(C(=O)N[C@H](Cc2ccccn2)C2CC(O)C2)CC1 (some centres not stated) | inactive
43 | CC(C)NC(=O)CCc1cc2n(n1)CCN(Cc1cc(=O)[nH]c(=O)[nH]1)C2 | inactive
44 | CC(C)CN(CC1CN(C(=O)c2ccccc2)CCO1)C(=O)c1cccc2ccccc12 (configuration not stated) | inconclusive: 2.24 µM [inhibitor, partial curve, poor fit]
45 | COc1ccc2c(c1)OCC(C(=O)NCC1(c3ccccc3)CCOCC1)C2 (configuration not stated) | inactive
46 | CCOC(=O)c1[nH]c2c(c1Cc1ccccc1)C(=O)CC(c1ccccc1)C2 (configuration not stated) | inconclusive: 10 µM [inhibitor, single point]

Row | SMILES | Potency
47 | COc1ccc(-c2cc([C@H]3CN4CC[C@H]3C[C@@H]4CNC(=O)CSCC(=O)O)nc(C)n2)cc1OC | inconclusive: 11.2 µM [inhibitor, single point]
48 | O=C(C1CCCCC1)N1CCCC2(CC(c3cccc(C(F)(F)F)c3)=NO2)C1 (configuration not stated) | inconclusive: 5.62 µM [inhibitor, partial curve, poor fit]
49 | COc1ccccc1C(=O)n1nc(-c2ccccc2)nc1NCc1ccc(Cl)cc1 | inconclusive: 10 µM [inhibitor, single point]
50 | O=C(Nc1ccc2ncnc(N3CCCCC3)c2c1)C1CCCCC1 | inactive
51 | CN(C)c1ccc(CNC(=O)CN2C(=O)C3CCCCN3c3ccc(C(=O)N4CCCC4)cc32)cc1 (configuration not stated) | inactive
52 | O=C(NC1CCN(c2cc(-c3ccc(F)cc3)[nH]n2)CC1)c1ccncc1 | inactive
53 | Cc1cccc(-c2noc(CCC(=O)N3CCc4c(nc(C)[nH]c4=O)C3)n2)c1 | inactive
54 | CCOc1ccc(CC(=O)N2CCCN(c3cc(-c4ccc(OC)cc4)[nH]n3)CC2)cc1OCC | inconclusive: 2.82 µM [inhibitor, single point]
55 | O=C(Nc1cccc(F)c1)C1CCN(c2cc(C(F)(F)F)ncn2)CC1 | inconclusive: 1.12 µM [inhibitor, partial curve, poor fit]
56 | Cc1ccccc1Nc1nn2c(=O)c3ccc(C(=O)NCc4cccs4)cc3nc2s1 | inconclusive: 17.8 µM [inhibitor, single point]
57 | O=C(NCCc1ccc(Cl)cc1)c1nc(-c2cccnc2)c2cnccn12 | inconclusive: 1.26 µM [inhibitor, full curve, poor fit]
58 | COc1ccccc1CNC(=O)CN1CCCC(CO)(CC2CC2)C1 (configuration not stated) | inactive
59 | CC(C)(C)c1cccc(CN2CCC3(CCNCC3)C2)c1O | active: 10 µM
60 | CCC(=O)N1CCc2c(sc3ncnc(N4CCN(C)CC4)c23)C1 | inconclusive: 7.08 µM [inhibitor, partial curve, poor fit]
61 | O=C1c2cnc(-c3cccnc3)nc2OCCN1Cc1ccccc1 | inconclusive: 11.2 µM [inhibitor, partial curve, poor fit]
62 | COc1ccc(C(CNC(=O)c2oc3cc(C)c(C)cc3c2C)N2CCCCC2)cc1 (configuration not stated) | inconclusive: 12.6 µM [inhibitor, single point]
63 | CC(C)(C)C(=O)N1CCC2(CC1)NCCc1c2[nH]c2ccccc12 | inconclusive: 3.98 µM [inhibitor, full curve, poor fit]
64 | Cc1cc(-c2nccc3c(=O)cc(N(C)C)oc23)ccn1 | inconclusive: 44.7 µM [inhibitor, single point]
65 | Cc1ccc(-c2noc(-c3nc(-c4ccncc4)no3)n2)cc1 | inactive
66 | COc1cc2c(cc1Oc1cccc(N(C)C)c1)NC(=O)C21CCN(C(=O)C2CCC2)CC1 | inconclusive: 2.51 µM [inhibitor, single point]
67 | O=C(Cn1c(=O)n(Cc2ccco2)c(=O)c2oc3ccccc3c21)Nc1ccccc1 | inconclusive: 17.8 µM [inhibitor, single point]

Reference: PubChem BioAssay AID1347417 (National Center for Advancing Translational Sciences (NCATS), 2020)
